Test results published in PubChem BioAssay AID1508642 (National Center for Advancing Translational Sciences (NCATS), 2021).
The campaign covered roughly 43,000 compounds. About 200 (0.47%) were called active. Another 12% or so got no clear call; they are omitted. Calls follow the shape of the dose curve; as a rule, active = well fitted cell-killing curve with a large enough effect; inconclusive = small, poorly fitted or top-dose-only effect, or effect the other way; inactive = flat fitted curve, though single readings scatter. Some of the results follow.

Test: Cell viability qHTS assay in S16 Pmp22-F2sN cells; also: nearly all actives have a fitted effect of over 65% in size
Details: S16 Pmp22-F2sN Schwann cells (luciferase reporters placed in the Pmp22 gene) viability, CellTiter-Glo, 24 h; series mostly up to 57.5 µM; activity change, negative = cytotoxicity: at the top concentration
How it was run: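 Rat S16 Schwann reporter line, 24 h treatment with library compounds delivered at 23 nL per well. Cell viability by CellTiter-Glo luminescence.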
% is scaled to controls: 0 for no effect and ±100 for the full control effect.

| SMILES | activity change, negative = cytotoxicity |
| --- | --- |
| CC(=O)c1cccc(Nc2ccc3cc(S(=O)(=O)N4CCCC4)ccc3n2)c1 | inactive: 19.4% |
| Cc1ccc(-n2ncc(C(=O)NCCN3CCc4ccccc4C3)c2C2CCNCC2)cc1C | inactive: -21.6% |
| COc1ccc(NC(=O)c2cc(=O)c3ccc(C)c(C)c3o2)cc1Cl | inactive: 0.329% |
| CCOC(=O)c1cc(S(=O)(=O)Nc2ccccc2OCC)[nH]n1 | inactive: -3.11% |
| Cc1ccccc1CSc1nc2c([nH]c3ccccc32)c(=O)n1C | inactive: 8.27% |
| COc1ccc(-n2c(=O)c3c4c(sc3n3c(SC(C)C)nnc23)COC(C(C)C)C4)cc1 (stereo unspecified) | inactive: 15.2% |
| CCCc1cc(=O)[nH]c(SCc2nc(-c3ccccc3F)no2)n1 | inactive: -0.079% |
| COc1ccc(NC(=O)CSC2=Nc3ccccc3C3=NC(CC(=O)NCc4ccc5c(c4)OCO5)C(=O)N23)cc1 (stereo unspecified) | inactive: 3.32% |
| CCOc1ccc(C(c2c(O)cc(C)n(Cc3ccco3)c2=O)N2CCN(c3ccccc3)CC2)cc1 (stereo unspecified) | inactive: -0.447% |
| Cc1cccc(CNC(=O)C2CCN(S(=O)(=O)c3ccc4c(c3)CCCN4C(=O)C3CCC3)CC2)c1 | inactive: 6.12% |
| CCCc1cnc2c(c1SCC(=O)Nc1ccccc1F)c(=O)n(C)c(=O)n2C | inactive: -2.8% |
| CCCCCc1nn2cc(-c3ccccc3)nc2s1 | inactive: 11% |
| Cn1nnnc1SCCCNCc1cc(Cl)ccc1OCc1ccccc1F | inactive: -28.9% |
| Cc1cccc(N2CCN(S(=O)(=O)c3c(C(=O)N4CCC(C)CC4)c(C)n(C)c3C)CC2)c1C | inactive: -19.9% |
| Cc1ccc(NC(=O)Cn2cnc3sc(C)c(S(=O)(=O)N4CCN(c5ncccn5)CC4)c3c2=O)cc1F | inactive: 11.1% |
| COC(=O)c1ccc(NC(=O)CC2C(=O)N(c3ccccc3)C(=O)N2Cc2ccco2)cc1 (stereo unspecified) | inactive: 1.7% |
| COc1cc(Nc2ncc3c(n2)CCN(Cc2cc(F)cc(F)c2)C3)cc(OC)c1 | inactive: -11% |
| CCc1nn(Cc2c(C)cc(C)cc2C)c(=O)c2cc3cc(C)ccc3n12 | inactive: 3.49% |
| O=C(Nc1ccc(F)cc1F)N1CCN(c2ccc(Cl)c(Cl)c2)CC1 | inactive: -0.791% |
| CCCC12CN3CC(CCC)(CN(C1)C3c1c(C)[nH]c(=O)[nH]c1=O)C2=O (stereo unspecified) | inactive: 14.5% |
| Cc1ccc(C2C=C(c3ccc(Cl)cc3)Nc3nc(NC(=O)c4ccco4)nn32)cc1 (stereo unspecified) | inactive: -10.3% |
| Cc1cc(C)cc(N2C(=O)CCSC23C(=O)N(Cc2ccccc2)c2ccccc23)c1 (stereo unspecified) | inactive: 2.89% |
| O=S(=O)(NCCc1csc2nc(-c3ccc(F)cc3)nn12)c1ccc(Oc2ccccc2)cc1 | inactive: -19.7% |
| CCOc1ccc(CCNC(=O)c2ccc3c(c2)sc2nc(-c4ccc(F)cc4)cn23)cc1OCC | inactive: 4.29% |

| SMILES | activity change, negative = cytotoxicity |
| --- | --- |
| CC1CN(C(=O)CCC(=O)NCc2ccccc2)c2cc(Cl)ccc2O1 (stereo unspecified) | inactive: -22% |
| CC(C)(C)NC(=O)c1ccc2nc(CCc3ccccc3)oc2c1 | inactive: 0.11% |
| COc1ccc(-c2nc(-c3ccccc3)c(-c3ccc(F)cc3)[nH]2)c(OC)c1C | inactive: -2.35% |
| CCOC(=O)c1ccn(-c2nc(-c3cccc(OC)c3)cc(C(F)(F)F)n2)n1 | inactive: 1.41% |
| Cc1ccc(N2CC(NC(=O)C3CC3)CC2=O)cc1C (stereo unspecified) | inactive: 0.223% |
| Cc1nc2sccn2c(=O)c1S(=O)(=O)Nc1ccc(N2CCN(C(=O)C(C)C)CC2)cc1 | inactive: -8.11% |
| CCOC(=O)c1[nH]c(C)c(CCC(=O)Nc2ccc(Br)c(C)c2)c1C | inactive: -1.13% |
| Cc1ccc(C(CC(=O)Nc2ccc(F)c(Cl)c2)N2Cc3ccccc3C2=O)cc1 (stereo unspecified) | inactive: 4.44% |
| COc1cccc(NC(=O)N(Cc2c[nH]c3ccccc23)C2CCCCC2)c1 | inactive: 16.5% |
| COc1cccc(CNCCSc2nnnn2C)c1OCc1ccc(F)cc1 | inactive: -8.78% |
| CC(C)c1ccc(NC(=O)CCn2c(=O)c3cccn3c3ccccc32)cc1 | inactive: -8.45% |
| Cc1ccc(-c2nc3c4ccccc4n(CC(=O)N4CCN(c5ccc(F)cc5)CC4)c(=O)n3n2)cc1 | inactive: 0.455% |
| Cc1cc(C)cc(Nc2cc(C)nc3nc(-c4ccco4)nn23)c1 | inactive: -13.1% |
| CCOC(=O)c1c(NC(=O)c2cc(-c3ccc(Cl)cc3)on2)sc(C)c1C | inactive: -0.472% |
| CCC(C)NC(=O)Cn1c(-c2cccs2)cc2cc(Cl)ccc21 (stereo unspecified) | inactive: 3.59% |
| Cc1cc(N2CCC(C(=O)NCCC(C)C)CC2)n2nc(C)c(-c3ccc(Cl)cc3)c2n1 | inactive: 11.4% |
| Cc1ccc(CN(C(=O)c2ccccc2[N+](=O)[O-])c2ccccn2)cc1 | inactive: 15.7% |
| Cn1c(=O)c2c(SCC(=O)Nc3ccc(F)cc3F)nc(C3CCCC3)nc2n(C)c1=O | inactive: 15% |
| CCOC(=O)c1cnc(N2CCN(c3ccc(C)cc3C)CC2)c2ccccc12 | inactive: 2.17% |
| CC(C)(C)c1ccccc1NC(=O)c1cnn2c(C(F)F)cc(-c3ccccc3)nc12 | inactive: 19% |
| CSc1cccc(NC(=O)CN2C(=O)COc3ccc(S(=O)(=O)N4CCC(C)CC4)cc32)c1 | inactive: -6.26% |
| Cc1ccc(C)c(NC(=O)Cn2ccn(-c3ccc(F)cc3)c(=O)c2=O)c1 | inactive: -4.04% |
| CCOC(=O)c1cc(OC(=O)c2cc(OC)cc(OC)c2)n(-c2ccccc2)n1 | inactive: 6.23% |
| Clc1ccc2nc(-c3cccs3)c(Nc3ccc4c(c3)OCCO4)n2c1 | inactive: -4.38% |

| SMILES | activity change, negative = cytotoxicity |
| --- | --- |
| CCc1nonc1NC(=O)c1oc2ccc(Cl)cc2c1C | inactive: -3.28% |
| Cc1ccc(Cl)cc1NC(=O)Cn1c(SCC(=O)NCc2ccccc2)nc2ccccc21 | inactive: -7.29% |
| CCOC(=O)c1c(NC(=O)CSc2cn(CCNC(=O)c3ccc(OCC)cc3)c3ccccc23)sc2c1CCC2 | inactive: 8.53% |
| COCCCNC(=O)c1ccc(-n2c(-c3ccccc3)cc3c2CCCCC3)cc1 | inactive: 14% |
| CC1Cc2cc(S(=O)(=O)NCc3ccccc3)ccc2N1C(=O)C1CCC1 (stereo unspecified) | inactive: 5.43% |
| CC1=C(C(=O)OC2CCCCCC2)C(c2ccc(Cl)cc2Cl)CC(=O)N1 (stereo unspecified) | inactive: 26.4% |
| COc1ccc(CNC(=O)CC2Oc3ccc(C)cc3NC2=O)cc1 (stereo unspecified) | inactive: 9.34% |
| COc1cccc(CNC(=O)c2cc(=O)[nH]c3ccc(S(=O)(=O)N4CCCC4)cc23)c1 | inactive: -2% |
| COc1ccc(CCNc2nc(SCc3cccc(Cl)c3)nc3ccccc23)cc1OC | inactive: 23.6% |
| CCOc1ccc(CCNC(=O)c2nn(C)c3c2CSc2ccc(C)cc2-3)cc1OCC | inactive: -24% |
| Cc1cccc(Cn2c(CN3CCCC(C)C3)nc3c2c(=O)n(C)c(=O)n3C)c1 (stereo unspecified) | inactive: 1.68% |
| Cc1ccc(S(=O)(=O)N2CCc3cc(C(=O)Nc4c(C)cccc4C(C)C)ccc32)cc1 | inactive: -0.303% |
| COC(=O)c1cc2oc3ccccc3c2n1CC(=O)Nc1ccc(F)c(Cl)c1 | inactive: 6.76% |
| Cc1ccccc1Cn1c(C)c(CNCCCc2ccccc2)c(C(=O)O)c1C | inactive: 4.52% |
| COc1ccc(C2C=C(c3ccc(Cl)cc3)Nc3nc(NC(=O)CCC(=O)O)nn32)cc1 (stereo unspecified) | inactive: 2.69% |
| Cc1ccccc1Nc1c(-c2c[nH]c3ccccc23)nc2cccc(C)n12 | inactive: -2.36% |
| CCCOc1cccc(C(=O)N2CCCCC2CCN2CCCCC2)c1 (stereo unspecified) | inactive: 5.4% |
| CCC(C)NC(=O)Cn1c(=O)c2cccn2c2ccc(F)cc21 (stereo unspecified) | inactive: 2.17% |
| O=C(Nc1ccc(F)cc1Cl)c1cnc(N2CCOCC2)c2ccccc12 | inactive: 1.38% |
| Cc1ccc(NC(=O)CCc2nc3cccnc3n2-c2ccccc2)cc1Cl | inactive: -1.55% |
| COc1ccc(-c2csc3nc(-c4ccc(C)cc4)oc(=O)c23)cc1OC | inactive: 7.09% |
| Cc1ccc(N(Cc2cccs2)C(=O)c2ccccc2[N+](=O)[O-])cc1 | inactive: -17.4% |
| CCn1cc2nc(SCC(=O)Nc3ccc(OC)cc3OC)n(Cc3ccc(Cl)cc3)c(=O)c2n1 | inactive: -2.38% |
| CCCCN(C)c1nnc(NC(=O)Nc2ccc(Br)c(C)c2)s1 | inactive: 7.82% |

| SMILES | activity change, negative = cytotoxicity |
| --- | --- |
| CCc1ccc(CN(Cc2ccco2)C(=O)c2cc(-c3ccc(C)c(F)c3)on2)cc1 | inactive: 3.52% |
| CCOc1ccc(NC(=O)Cn2cc(C(=O)c3ccc(C)cc3)c(=O)c3cc4c(cc32)OCO4)cc1 | inactive: 6.09% |
| CCOCCc1nn2c(=O)cc(COC(=O)c3ccccc3NC(=O)c3ccc(C)cc3)nc2s1 | inactive: 7.06% |
| Fc1ccccc1N1CCN(c2ncnc3c2nc2n3CCCC2)CC1 | inactive: -10% |
| COc1ccc(CCNC(=O)CCCCn2c(=O)c3ccccc3n(Cc3ccccc3)c2=O)cc1OC | inactive: 10.7% |
| CCOC(=O)c1ccc(NC(=O)CSc2ncc(S(=O)(=O)c3ccc(C)c(Cl)c3)c(=O)[nH]2)cc1 | inactive: 12.6% |
| O=C(CNS(=O)(=O)c1cccs1)N1CCN(c2ccccc2F)CC1 | inactive: 9.92% |
| Cc1ccc(F)cc1S(=O)(=O)N1CCC(c2nc3ccccc3s2)CC1 | inactive: 8.33% |
| CCCn1c(=O)c2sccc2n2c(CCCC(=O)NC3CCCCC3)nnc12 | inactive: 25.4% |
| CCn1c2c(c(=O)n3ncc(C(=O)Nc4ccc(Cl)cc4C)c13)CN(Cc1ccc(OC)cc1)CC2 | inactive: 0.416% |
| Brc1cccc(-c2nnn3c2nc(N2CCCCC2)c2ccccc23)c1 | inactive: 11.2% |
| O=S(=O)(NCCc1csc2nc(-c3ccccc3)nn12)c1ccc(Oc2ccccc2)cc1 | inactive: -19.2% |
| CCN(CC)c1ccc(NC(=O)CCc2c(C)nc3ncnn3c2C)c(C)c1 | inactive: 8.5% |
| COc1ccc(Cl)cc1NC(=O)Cn1nnc2sc(-c3ccccc3)cc2c1=O | inactive: 16.8% |
| Cc1ccc(Cl)cc1N1CCN(C(=O)c2noc3c2CCCC3)CC1 | inactive: 3.69% |
| Cc1ccc(-n2nnnc2CNC(=O)C2CC(=O)N(c3ccccc3)C2)cc1C (stereo unspecified) | inactive: 10.2% |
| O=C1CN(C(=O)Cc2ccccc2)C(c2ccc(F)cc2)c2cc(Br)ccc2N1 (stereo unspecified) | inactive: -2.73% |
| CCOc1ccc(NC(=O)[C@@H](c2ccccc2)N2Cc3ccccc3C2=O)cc1 | inactive: -0.863% |
| CC(C)c1ccc(N2C(=O)N(Cc3cccc([N+](=O)[O-])c3)c3ccccc3S2(=O)=O)cc1 | inactive: 4.75% |
| Cc1noc(-c2ccc(-c3noc(-c4ccc([N+](=O)[O-])c(C)c4)n3)cc2)n1 | inactive: -15.7% |
| COc1ccc(NS(=O)(=O)c2ccc3c(c2)[C@H]2C=CC[C@H]2[C@@H](c2ccc(C(=O)O)cc2)N3)cc1 | inactive: 3.79% |
| CCCc1nn2c(=O)cc(COC(=O)c3ccc(NC(=O)COc4ccccc4F)cc3)nc2s1 | inactive: -7.35% |
| CCOc1ccc(CCNCc2c(C(=O)O)c(C)n(Cc3ccccc3F)c2C)cc1 | inactive: 12.6% |
| Cc1ccc(S(=O)(=O)N2CCc3cc(C(=O)Nc4ccc(Cl)cc4C)ccc32)cc1 | inactive: 4.6% |
